{"source": "paper PMC7819943", "about": "“Rice protein-binding microarrays: a tool to detect cis-acting elements near promoter regions in rice”", "note": "This is one part of the list."}
{"target": "T1, OsWOX13 (Oryza sativa, UniProt Q5QMM3 1-267)", "T1 sequence": "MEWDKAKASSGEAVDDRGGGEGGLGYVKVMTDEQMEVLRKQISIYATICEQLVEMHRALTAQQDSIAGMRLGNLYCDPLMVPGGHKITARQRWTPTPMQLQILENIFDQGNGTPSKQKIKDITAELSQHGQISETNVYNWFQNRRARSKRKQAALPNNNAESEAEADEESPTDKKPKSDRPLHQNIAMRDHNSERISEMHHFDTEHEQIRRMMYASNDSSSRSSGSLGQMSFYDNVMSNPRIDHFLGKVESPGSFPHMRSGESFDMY", "test": "protein-binding microarray (RPBM); PBS, 2% BSA, 51.3 ng/ul salmon testes DNA, 50 uM zinc acetate, 200 nM TF, 25 C, 1 h; high values mean tight binding", "settings": "protein: recombinant; tags: N-terminal polyhistidine and DsRed monomer fusion (pET32a); label: CyDye5-dUTP incorporated in the synthesized complementary strand; 3' TTTTT single-stranded linker to array surface; dsDNA, one strand shown", "method_in_brief": "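Per-feature fluorescence intensity (arbitrary units), read on an Axon 4000B scanner, is the binding signal. Transcription factors carrying an N-terminal polyhistidine tag and DsRed fusion were expressed in E. coli BL21-CodonPlus and purified on Ni–NTA. A custom Agilent array, made double-stranded by primer extension with Cy5-dUTP and blocked with 2% BSA, was incubated with 200 nM protein in PBS, 2% BSA, salmon testes DNA and 50 µM zinc acetate at 25 °C for 1 h and then washed.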"}
{"sequence": "TCATGCAATTTGTGCCAATCATAAAGGACGTACGTAGTACCGGAGTCACCTAGTGCAG", "binding signal": "25500 fluorescence intensity (a.u.)"}
{"sequence": "GGCAAATTAACCAAGTTAGCTGCAGCTGCAGCTGGGATGGCGGAGTCACCTAGTGCAG", "binding signal": "9780 fluorescence intensity (a.u.)"}
{"sequence": "GTCAAATTTGACATTGTGCAGTGGCTCGCCAAAGTAAACGCGGAGTCACCTAGTGCAG", "binding signal": "5010 fluorescence intensity (a.u.)"}
{"sequence": "CCTGATGTGCTTGTAGGGCGGTGTTCTTGTGTGTGTGTGTCGGAGTCACCTAGTGCAG", "binding signal": "3490 fluorescence intensity (a.u.)"}
{"sequence": "AGGCCTTAATTTATTATTCGTTTGAGATAATGGGCCGGGCCGGAGTCACCTAGTGCAG", "binding signal": "13400 fluorescence intensity (a.u.)"}
{"sequence": "ATTACACCAACAAATTGACTGAAATCAAATTCATTATCGGCGGAGTCACCTAGTGCAG", "binding signal": "23200 fluorescence intensity (a.u.)"}
{"sequence": "TGCATACCCTCAATCATTTCCTTGTTTTATCTTCTTTCAGCGGAGTCACCTAGTGCAG", "binding signal": "4070 fluorescence intensity (a.u.)"}
{"sequence": "ATGTAATTTCTTTATGTGCTAGATTAAGAACACTAATTCCCGGAGTCACCTAGTGCAG", "binding signal": "10500 fluorescence intensity (a.u.)"}
{"sequence": "GCACAAATTACCAAGATTGGGCGCTGGTAATGCGGGTGAACGGAGTCACCTAGTGCAG", "binding signal": "21500 fluorescence intensity (a.u.)"}
{"sequence": "CAAGTAAACATCAACTCGGCGTGATTGTTCTAGGGTGACCCGGAGTCACCTAGTGCAG", "binding signal": "5190 fluorescence intensity (a.u.)"}
{"sequence": "ATGATCATTTACTGATTGTGAACTGTAGTCTCTGTGGTCTCGGAGTCACCTAGTGCAG", "binding signal": "18700 fluorescence intensity (a.u.)"}
{"sequence": "TTCTGATTTCTGCCATTGATTATGATTTCAGCATGTTTTCCGGAGTCACCTAGTGCAG", "binding signal": "11800 fluorescence intensity (a.u.)"}
{"sequence": "GTAATTTATATTGAAATGCAATTACTTCCTCCGTTTCACCCGGAGTCACCTAGTGCAG", "binding signal": "21800 fluorescence intensity (a.u.)"}
{"sequence": "ATTAATTATCAGTGAGCACAAGCCTGGCATGTAAATCATGCGGAGTCACCTAGTGCAG", "binding signal": "24800 fluorescence intensity (a.u.)"}
{"sequence": "TCGAAGCAAAATTGAATCGATACAATTTAACGCCCATTTTCGGAGTCACCTAGTGCAG", "binding signal": "3260 fluorescence intensity (a.u.)"}
{"sequence": "TATCTTTGACAAACTTTATTCGTTTCCGAAAATTTGGCAGCGGAGTCACCTAGTGCAG", "binding signal": "3710 fluorescence intensity (a.u.)"}
{"sequence": "CATAGCCAATTATGTGTCATGTTTTGTGATTTGGTACATGCGGAGTCACCTAGTGCAG", "binding signal": "10000 fluorescence intensity (a.u.)"}
{"sequence": "CTCCACCTGATTGGGGCGCACCCCACATGGGCCCCACTTGCGGAGTCACCTAGTGCAG", "binding signal": "14500 fluorescence intensity (a.u.)"}
{"sequence": "GACGAGACTGAGTTGATTAATTGATTAACATACAAGCTGCCGGAGTCACCTAGTGCAG", "binding signal": "51000 fluorescence intensity (a.u.)"}
{"sequence": "CAACTAATTATGATTGAGAGGCATGATTCCCCTTTCTTATCGGAGTCACCTAGTGCAG", "binding signal": "33000 fluorescence intensity (a.u.)"}
{"sequence": "GTTTAGTTTAAATTCAAATTTAATGTTTCAATTAATCTATCGGAGTCACCTAGTGCAG", "binding signal": "4750 fluorescence intensity (a.u.)"}
{"sequence": "TTTGATGGGATGTATGCTGTGTAGGACACATACTGTGTATCGGAGTCACCTAGTGCAG", "binding signal": "7790 fluorescence intensity (a.u.)"}
{"sequence": "TAGATAGATTTAGTTTTGATAATGGATAGAGATATTGCCCCGGAGTCACCTAGTGCAG", "binding signal": "11600 fluorescence intensity (a.u.)"}
{"sequence": "CATAATTAGCGGTTGATTACTGTAGCATCACTGTAACAAACGGAGTCACCTAGTGCAG", "binding signal": "29600 fluorescence intensity (a.u.)"}
{"sequence": "ACGAGGAAGCTAATTAACCTGACGCCACCACCTCTCTTTCCGGAGTCACCTAGTGCAG", "binding signal": "3480 fluorescence intensity (a.u.)"}
{"sequence": "TATAGTTACTAATCACAAACTGAATGGTCTGAATGACAATCGGAGTCACCTAGTGCAG", "binding signal": "10100 fluorescence intensity (a.u.)"}
{"sequence": "TATATTTGACTGGATGGAGTATCTTGTTTCAAAGAAATCGCGGAGTCACCTAGTGCAG", "binding signal": "10100 fluorescence intensity (a.u.)"}
{"sequence": "TTCCGATTATTATTTGTATTTATTAATTTAGGATTTCTCTCGGAGTCACCTAGTGCAG", "binding signal": "8170 fluorescence intensity (a.u.)"}
{"sequence": "CTTAATTAAGTTTATGTGATAACGAATCATTCCGTTTTAACGGAGTCACCTAGTGCAG", "binding signal": "15500 fluorescence intensity (a.u.)"}
{"sequence": "TTTAATTGTTATGAACACGACAATGTAATCGGATCATAGACGGAGTCACCTAGTGCAG", "binding signal": "10100 fluorescence intensity (a.u.)"}
{"sequence": "CGTAAATTACCTAGTGCTTCTTCACACCTTTGAGTGTATGCGGAGTCACCTAGTGCAG", "binding signal": "27300 fluorescence intensity (a.u.)"}
{"sequence": "TAATAATGATGGATGGATATGTATGCCATATTAAACAATCCGGAGTCACCTAGTGCAG", "binding signal": "15600 fluorescence intensity (a.u.)"}
{"sequence": "CACAAAGATTGTAATTTTGTTCAGTTTGAGGTTCAATTACCGGAGTCACCTAGTGCAG", "binding signal": "5920 fluorescence intensity (a.u.)"}
{"sequence": "ATTAAACTTTTAATTTTAGCGTGAATTAAACACACCCGAGCGGAGTCACCTAGTGCAG", "binding signal": "18200 fluorescence intensity (a.u.)"}
{"sequence": "AGTCCTAATTGATAGAAAATGTTTAATTTGACCCTAGAATCGGAGTCACCTAGTGCAG", "binding signal": "22100 fluorescence intensity (a.u.)"}
{"sequence": "AATACACATTGACAGATGAGTTAACGCCCGTGACAGGCTGCGGAGTCACCTAGTGCAG", "binding signal": "20500 fluorescence intensity (a.u.)"}
{"sequence": "CTCTGTAAAATTTGTATATCTGATTTTCCATATGGTCTTGCGGAGTCACCTAGTGCAG", "binding signal": "3760 fluorescence intensity (a.u.)"}
{"sequence": "TGTTGATTATTGTCTTCTGAAGATGAGCATGCTCTGCTCTCGGAGTCACCTAGTGCAG", "binding signal": "19300 fluorescence intensity (a.u.)"}
{"sequence": "GCTTAATTATTTGGATTGTTTATCACCACTATATATATGTCGGAGTCACCTAGTGCAG", "binding signal": "45700 fluorescence intensity (a.u.)"}
{"sequence": "ATAATTTATAAATAAAACTTTTATATATGTGCTATTAACGCGGAGTCACCTAGTGCAG", "binding signal": "15800 fluorescence intensity (a.u.)"}
{"sequence": "ACTTCGATGATTTGGCTGATCTTGTGGAGAAAGCATTGCGCGGAGTCACCTAGTGCAG", "binding signal": "7180 fluorescence intensity (a.u.)"}
{"sequence": "ATAATTAATCTAAATTTAATACTCCAAATTAACGTCAAACCGGAGTCACCTAGTGCAG", "binding signal": "16200 fluorescence intensity (a.u.)"}
